The list shows a part of the results. Most values come without repeats; read them as rough.
How the values were obtained:
Test in all cases: cell count relative to DMSO control; melanoma cells; higher = more viable cells
Settings in all cases: library dose: standard library concentration; 72 h
SkMel28 = test system: SkMel28
SkMel2 = test system: SkMel2
SkMel30 = test system: SkMel30
SkMel5 = test system: SkMel5
UACC257 = test system: UACC257
UACC62 = test system: UACC62
WM115 = test system: WM115
WM1716 = test system: WM1716
WM1745 = test system: WM1745
WM3526 = test system: WM3526
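Also: cells treated in 1,536-well plates, then fixed and DAPI-stained, with nuclei counted from automated high-throughput microscope images.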

Compound	cell count (SkMel28)	cell count (SkMel2)	cell count (SkMel30)	cell count (SkMel5)	cell count (UACC257)	cell count (UACC62)	cell count (WM115)	cell count (WM1716)	cell count (WM1745)	cell count (WM3526)
COc1cc2c(Oc3ccc4[nH]c(C)cc4c3F)ncnc2cc1OCCCN1CCCC1 [cediranib] + Cn1cc(/C=C2\C(=O)Nc3cccnc32)c2ccccc21 [GW441756] (first compound 2 µM, partner dose 2 µM)	84.3%	99.2%	80.7%	49.1%	67.8%	83.6%	76.2%	81.9%	61.3%	79.3%
NC(=O)c1ccc(N(C(N)=O)c2c(F)cccc2F)nc1-c1ccc(F)cc1F + C=CCn1c(=O)c2cnc(Nc3ccc(N4CCN(C)CC4)cc3)nc2n1-c1cccc(C(C)(C)O)n1 [MK1775] (first compound 2 µM, partner dose 0.1 µM)	59%	85%	72.5%	52.6%	77.4%	68.3%	64.4%	89.4%	59.9%	65%
Cc1ccc(NC(=O)c2cccc(N(C)C)c2)cc1NC(=O)c1ccc(O)cc1 + COC(=O)c1sccc1S(=O)(=O)Nc1ccc(Nc2ccccc2)cc1OC [GSK0660] (first compound 10 µM, partner dose 5 µM)	75.8%	80.4%	79.7%	99.8%	84.1%	110%	101%	99.1%	82.7%	85.8%
CN(NC(=O)CC(=O)NN(C)C(=S)c1ccccc1)C(=S)c1ccccc1 + Oc1nc(-c2ccc(C(F)(F)F)cc2)nc2c1CSCC2 [XAV939] (first compound 0.03 µM, partner dose 10 µM)	10.8%	55.6%	82.2%	44.1%	76.8%	32.5%	20.4%	46.4%	29.2%	84.4%
NC(=O)c1ccc(N(C(N)=O)c2c(F)cccc2F)nc1-c1ccc(F)cc1F + Cn1nnc2c(C(N)=O)ncn2c1=O [temozolomide] (first compound 2 µM, partner dose 10 µM)	35.1%	90.2%	57.3%	74.9%	99%	56.6%	78.5%	54.5%	86.3%	93.4%
NC(=O)c1ccc(N(C(N)=O)c2c(F)cccc2F)nc1-c1ccc(F)cc1F + CO[C@H]1C[C@@H]2CC[C@@H](C)[C@@](O)(O2)C(=O)C(=O)N2CCCC[C@H]2C(=O)O[C@H]([C@H](C)C[C@@H]2CC[C@@H](OCCO)[C@H](OC)C2)CC(=O)[C@H](C)/C=C(\C)[C@@H](O)[C@@H](OC)C(=O)[C@H](C)C[C@H](C)/C=C/C=C/C=C/1C [everolimus] (first compound 2 µM, partner dose 0.1 µM)	67.5%	76.6%	70.6%	53.8%	96.9%	62.7%	67.4%	77.9%	76%	67.6%
Cc1ccc(NC(=O)c2cccc(N(C)C)c2)cc1NC(=O)c1ccc(O)cc1 + NCC(=O)Nc1ccc(-n2nc(C(F)(F)F)cc2-c2ccc3c(ccc4ccccc43)c2)cc1 [OSU03012] (first compound 10 µM, partner dose 5 µM)	23.7%	36.3%	27.1%	52.4%	71.1%	58.2%	73.9%	85.6%	57%	41.7%
NC(=O)c1ccc(N(C(N)=O)c2c(F)cccc2F)nc1-c1ccc(F)cc1F + COc1ccc(C2=N[C@@H](c3ccc(Cl)cc3)[C@@H](c3ccc(Cl)cc3)N2C(=O)N2CCNC(=O)C2)c(OC(C)C)c1 [Nutlin-3] (first compound 2 µM, partner dose 0.5 µM)	42%	90.3%	89.5%	76.7%	85.8%	66.1%	85.2%	85%	88.6%	87.6%
NC(=O)c1ccc(N(C(N)=O)c2c(F)cccc2F)nc1-c1ccc(F)cc1F + CN1CCN(c2ccc3nc(-c4c(N)c5c(F)cccc5[nH]c4=O)[nH]c3c2)CC1 [Dovitinib] (first compound 2 µM, partner dose 0.5 µM)	65.7%	70.7%	78%	58.3%	94.1%	59.1%	53.4%	104%	57.5%	59.7%
CCCCCCCCc1ccc(CCC(N)(CO)CO)cc1 [fingolimod] + NC1(c2ccc(-c3nc4ccn5c(=O)[nH]nc5c4cc3-c3ccccc3)cc2)CCC1 [MK2206] (first compound 10 µM, partner dose 2 µM)	1.06%	0.628%	11.1%	52.4%	70.7%	9.24%	14.4%	39.9%	11.3%	24.8%
CCCCCCCCc1ccc(CCC(N)(CO)CO)cc1 [fingolimod] + COc1ccc(Cl)c(Nc2nc3ccccc3nc2NS(=O)(=O)c2cccc(NC(=O)C(C)(C)N)c2)c1 [XL147] (first compound 10 µM, partner dose 4 µM)	1.26%	13.5%	14.5%	74.3%	59.1%	25%	21.6%	60.7%	70.4%	38.7%
CCCCCCCCc1ccc(CCC(N)(CO)CO)cc1 [fingolimod] + Nc1nc(F)nc2c1ncn2[C@@H]1O[C@H](CO)[C@@H](O)[C@@H]1O [fludarabine] (first compound 10 µM, partner dose 1 µM)	1.6%	0.101%	5.86%	25%	25.7%	4.73%	7.82%	24%	3.41%	9.31%
CCCCCCCCc1ccc(CCC(N)(CO)CO)cc1 [fingolimod] + C=CCn1c(=O)c2cnc(Nc3ccc(N4CCN(C)CC4)cc3)nc2n1-c1cccc(C(C)(C)O)n1 [MK1775] (first compound 10 µM, partner dose 0.1 µM)	0.59%	0.116%	10.5%	38.5%	44%	10.3%	15.2%	52.2%	9.49%	18.7%
NC(=O)c1ccc(N(C(N)=O)c2c(F)cccc2F)nc1-c1ccc(F)cc1F + CC(=O)c1c(C)c2cnc(Nc3ccc(N4CCNCC4)cn3)nc2n(C2CCCC2)c1=O [palbociclib] (first compound 2 µM, partner dose 0.2 µM)	64.3%	78.7%	83.5%	85.5%	110%	80%	74.3%	47.3%	79.2%	63.2%
COc1cc2c(Oc3ccc4[nH]c(C)cc4c3F)ncnc2cc1OCCCN1CCCC1 [cediranib] + Oc1cc(-c2nc(-c3ccccc3)[nH]c2-c2ccncc2)ccc1Cl [L779450] (first compound 2 µM, partner dose 1 µM)	58%	24%	71.9%	61.6%	88.7%	51.4%	40.1%	57.8%	46%	45.5%
CCCCCCCCc1ccc(CCC(N)(CO)CO)cc1 [fingolimod] + Cc1cc(Nc2cc(N3CCN(C)CC3)nc(/C=C/c3ccccc3)n2)n[nH]1 [ENMD2076] (first compound 10 µM, partner dose 0.2 µM)	1.56%	0.115%	13.5%	68.5%	76.4%	22.9%	29.3%	37.5%	24%	45.1%
CCc1ccc(CCOc2ccc(CC3SC(=O)NC3=O)cc2)nc1 (stereo not given) [pioglitazone] + Cn1cc(/C=C2\C(=O)Nc3cccnc32)c2ccccc21 [GW441756] (first compound 10 µM, partner dose 2 µM)	71.2%	91.5%	79.4%	70.6%	81%	73.9%	85.7%	118%	87.3%	90.8%
CCCCCCCCc1ccc(CCC(N)(CO)CO)cc1 [fingolimod] + Cn1c(Nc2ccc(C(F)(F)F)cc2)nc2cc(Oc3ccnc(-c4ncc(C(F)(F)F)[nH]4)c3)ccc21 [CHIR265] (first compound 10 µM, partner dose 0.4 µM)	8.65%	0.0928%	11.7%	29.8%	83.9%	8.76%	12%	39.8%	4.34%	36.1%
Cc1ccc(NC(=O)c2cccc(N(C)C)c2)cc1NC(=O)c1ccc(O)cc1 + CC(C)CCN1c2nc(Nc3cc(F)c(O)c(F)c3)ncc2N(C)C(=O)C1C [BID1870] (first compound 10 µM, partner dose 1 µM)	71.3%	70.3%	58.6%	60.1%	83.2%	74.2%	70.6%	96.8%	65.5%	60.1%
CCCCCCCCc1ccc(CCC(N)(CO)CO)cc1 [fingolimod] + CC(=O)c1c(C)c2cnc(Nc3ccc(N4CCNCC4)cn3)nc2n(C2CCCC2)c1=O [palbociclib] (first compound 10 µM, partner dose 0.2 µM)	1.26%	0.274%	18.5%	41.7%	75.7%	13.6%	16.6%	37.4%	3.25%	35.9%
CN(NC(=O)CC(=O)NN(C)C(=S)c1ccccc1)C(=S)c1ccccc1 + O=C(Nc1ccccc1)c1cc([N+](=O)[O-])ccc1Cl [GW9662] (first compound 0.03 µM, partner dose 10 µM)	17.1%	48.2%	77.9%	50.2%	71.3%	44.3%	17%	80.4%	27.5%	73.5%
NC(=O)c1ccc(N(C(N)=O)c2c(F)cccc2F)nc1-c1ccc(F)cc1F + NC1(c2ccc(-c3nc4ccn5c(=O)[nH]nc5c4cc3-c3ccccc3)cc2)CCC1 [MK2206] (first compound 2 µM, partner dose 2 µM)	41.7%	79.2%	95.6%	70.7%	90.4%	64.3%	69.2%	71.6%	90.9%	57.2%
CCCCCCCCc1ccc(CCC(N)(CO)CO)cc1 [fingolimod] + CO[C@@H]1[C@H](N(C)C(=O)c2ccccc2)C[C@H]2O[C@]1(C)n1c3ccccc3c3c4c(c5c6ccccc6n2c5c31)C(=O)NC4 [Midostaurin] (first compound 10 µM, partner dose 0.4 µM)	0.987%	0.488%	7.54%	47.9%	44.6%	12.4%	10.7%	8.11%	6.05%	23.8%

Reference: the supplement of paper PMC4604168 (melanoma cell lines)
